Molecules are shown by their SMILES.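 Values below derive from 48-hour exposures of cells grown in 96-well plates, with endpoints linearly interpolated between the two concentrations bracketing the appropriate inhibition level. TGI marks complete inhibition of growth.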 Some entries of the source have several records that differ or are many. They are shown here; other results are not. The source may hold further records. Records of one sample usually come from different ranges of test concentrations, not given here; a value can be the end of its range.

Common to all, as to test: growth of human tumour cells (NCI), 48 h
The subject of test [1] is EKVX NSCLC.
Test [2] concerns MCF7 breast.
The subject of test [3] is IGROV1 ovarian.
Test [4] deals with SNB-19 CNS.
Test [5] concerns HCT-116 colon.

For the molecule `CC(C)C[C@H](NC(=O)[C@@H]1CCCCCCCCCCC(=O)N[C@@H](CC(=O)N2CCC[C@@H]2C2CCCC2)C(=O)N1)B(O)O`, the TGI in test [1] was 472 nM and 14.3 µM; in test [2] it was 112 nM and 43.9 µM; in test [3], 23.8 nM and 1.5 µM; in test [4] it was 332 nM and > 100 µM; in test [5], 7.28 nM and 1.76 µM.

Values taken from PubChem BioAssay (NCI).
